Data on one molecule can be found in patent publication US20260234660A1, “TREATMENT OF MUSCLE RELATED DISORDERS WITH ANTI-HUMAN CACNG1 ANTIBODIES” (Regeneron Pharmaceuticals, Inc., priority 2023, published 2026).

The assay has as its target T1, androgen receptor (AR) (Homo sapiens, UniProt P10275, T878A).
T1 construct: LNCaP cells were transfected with lentivirus (Qiagen); endogenous in cells
T1 sequence (P10275 1-920 T878A): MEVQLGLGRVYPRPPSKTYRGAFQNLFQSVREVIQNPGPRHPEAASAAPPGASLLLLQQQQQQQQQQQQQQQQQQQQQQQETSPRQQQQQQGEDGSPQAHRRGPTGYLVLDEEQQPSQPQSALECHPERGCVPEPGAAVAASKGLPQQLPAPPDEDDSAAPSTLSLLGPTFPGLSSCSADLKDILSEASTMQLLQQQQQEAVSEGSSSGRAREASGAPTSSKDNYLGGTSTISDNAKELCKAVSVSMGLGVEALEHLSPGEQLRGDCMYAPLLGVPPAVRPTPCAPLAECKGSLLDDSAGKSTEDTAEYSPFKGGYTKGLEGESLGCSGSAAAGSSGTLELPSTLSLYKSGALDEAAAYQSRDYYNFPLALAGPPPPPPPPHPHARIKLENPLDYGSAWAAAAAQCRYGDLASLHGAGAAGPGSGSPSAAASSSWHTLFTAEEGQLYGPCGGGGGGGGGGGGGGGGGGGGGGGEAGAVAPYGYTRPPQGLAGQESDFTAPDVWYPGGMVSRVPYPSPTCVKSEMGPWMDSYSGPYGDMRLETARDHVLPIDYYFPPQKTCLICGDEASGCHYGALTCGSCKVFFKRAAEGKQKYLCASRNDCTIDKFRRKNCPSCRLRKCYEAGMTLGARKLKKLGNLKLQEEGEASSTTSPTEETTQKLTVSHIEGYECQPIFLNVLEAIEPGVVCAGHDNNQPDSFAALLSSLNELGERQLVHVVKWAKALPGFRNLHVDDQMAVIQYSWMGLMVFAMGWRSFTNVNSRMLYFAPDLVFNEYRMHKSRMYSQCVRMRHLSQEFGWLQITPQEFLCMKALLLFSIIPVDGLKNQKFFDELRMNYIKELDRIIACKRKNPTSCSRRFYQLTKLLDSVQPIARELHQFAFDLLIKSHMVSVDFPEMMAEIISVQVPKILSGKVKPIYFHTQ
The experiment in a line: Androgen receptor luciferase reporter assay in AR.Luc LNCaP cells (no hCACNG1). As to conditions: 24 hour incubation. It is filed as cell-based.

B1: REGN14573: 10713 variable regions, hIgG1 N180Q; tested conjugated via VC-PAB linker to DHT (M3004) (conjugate)
heavy chain: EVQLVESGGNLVQPGGSLRLSCAASGFTFTSHAMNWVRQAPGKGLEWVSVITGRGFDTHYADSVKGRFTISRDISKNTLYLQMNSLRAEDTAVYYCAKGLYDSGNYYIDYWGQGTLVTVSS[sequence of human IgG1 constant region with changes omitted]
light chain: QSVLTQPPSVSAAPGQKVTISCSGSSSNIGNNYVSWYQQLPGTAPKLLIYDNNKRPSGIPDRFSGSKSGTSATLGITGLQTGDEADYYCGTWDLSLSFNWVFGGGTKLTVLGQPKAAPSVTLFPPSSEELQANKATLVCLISDFYPGAVTVAWKADSSPVKAGVETTTPSKQSNNKYAASSYLSLTPEQWKSHRSYSCQVTHEGSTVEKTVAPTECS
For B1, the “androgen receptor activation (RLU)” value was “none of the CACNG1 antibodies conjugated to DHT showed any appreciable activation”.
